The whole screen tested about 310,000 compounds, of which about 14,000 (4.5%) showed an effect of 50% or more. The effect is printed as a negative number. The list shows a part of the results.
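Also: peak tail current of the secondary pulse compared with the same well before compound.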

human ether-à-go-go-related gene (hERG) potassium channel, sequence (Q12809 whole entry, looked up): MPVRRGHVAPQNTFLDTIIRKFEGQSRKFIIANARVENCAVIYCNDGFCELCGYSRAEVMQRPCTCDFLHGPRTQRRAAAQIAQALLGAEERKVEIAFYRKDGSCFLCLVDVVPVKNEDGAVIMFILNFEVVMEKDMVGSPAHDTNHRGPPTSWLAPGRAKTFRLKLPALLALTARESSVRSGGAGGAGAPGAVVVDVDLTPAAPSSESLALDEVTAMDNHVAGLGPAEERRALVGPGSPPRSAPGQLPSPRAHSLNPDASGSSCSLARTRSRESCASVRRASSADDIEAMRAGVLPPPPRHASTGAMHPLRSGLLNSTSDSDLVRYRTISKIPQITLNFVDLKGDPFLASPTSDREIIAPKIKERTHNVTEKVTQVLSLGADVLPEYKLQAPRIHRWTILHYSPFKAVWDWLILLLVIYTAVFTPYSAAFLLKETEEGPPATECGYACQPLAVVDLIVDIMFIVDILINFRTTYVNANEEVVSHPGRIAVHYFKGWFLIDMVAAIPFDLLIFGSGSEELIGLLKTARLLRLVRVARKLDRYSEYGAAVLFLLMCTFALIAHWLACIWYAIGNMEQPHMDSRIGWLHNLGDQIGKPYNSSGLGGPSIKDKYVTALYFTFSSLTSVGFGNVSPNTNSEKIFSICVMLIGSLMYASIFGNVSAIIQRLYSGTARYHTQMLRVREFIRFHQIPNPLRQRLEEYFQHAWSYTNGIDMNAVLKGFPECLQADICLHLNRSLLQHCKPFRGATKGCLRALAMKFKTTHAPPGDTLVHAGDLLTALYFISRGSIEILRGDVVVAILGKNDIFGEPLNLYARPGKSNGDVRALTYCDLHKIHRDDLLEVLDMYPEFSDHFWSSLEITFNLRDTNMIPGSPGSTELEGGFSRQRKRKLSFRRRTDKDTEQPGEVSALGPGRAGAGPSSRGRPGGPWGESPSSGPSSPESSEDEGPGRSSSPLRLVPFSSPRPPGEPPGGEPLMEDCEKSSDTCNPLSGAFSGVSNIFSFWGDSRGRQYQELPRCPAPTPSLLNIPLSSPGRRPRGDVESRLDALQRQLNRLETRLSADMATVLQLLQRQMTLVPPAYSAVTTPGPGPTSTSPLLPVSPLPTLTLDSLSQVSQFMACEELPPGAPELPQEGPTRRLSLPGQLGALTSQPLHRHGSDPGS

The test concerns the target human ether-à-go-go-related gene (hERG) potassium channel (human, UniProt Q12809). The experiment in a line: primary screen, population patch clamp on CHO cells stably expressing hERG.
For `CCOc1ccc2nnnn2n1`, the “hERG current change (%, negative = inhibition) at 10uM” value turned out to be 8.59%.

Turning to `COCc1c(C(=O)N/N=C/c2ccncc2)nnn1-c1nonc1N`, the “hERG current change (%, negative = inhibition) at 10uM” value is -0.253%.

Regarding `CSCCC(NS(=O)(=O)c1ccc2c(c1)Cc1cc(S(=O)(=O)NC(CCSC)C(=O)O)ccc1-2)C(=O)O` (stereo not drawn), the “hERG current change (%, negative = inhibition) at 10uM” value is 33.1%.

In the case of `Cc1cccc(-n2cc(-c3ccccc3)c3c(N4CCOCC4)ncnc32)c1`, the “hERG current change (%, negative = inhibition) at 10uM” value is reported as 30.7%.

`CCC(=O)Nc1cccc(C(=O)/C=C/c2ccc(F)cc2)c1`: the “hERG current change (%, negative = inhibition) at 10uM” value is on record as -69.1%.

For `O=C([O-])c1cc(-c2cccnc2)nc2ccccc12.[K+]`, the “hERG current change (%, negative = inhibition) at 10uM” value was 6.48%.

For `O=c1c2c3c(sc2nc(NCCO)n1Cc1ccco1)CCCCC3`, the “hERG current change (%, negative = inhibition) at 10uM” value is given as 3.41%.

As to `CC(=O)Nc1ccc(S(=O)(=O)NNC(=O)c2cccc3ccccc23)cc1`, the “hERG current change (%, negative = inhibition) at 10uM” value is reported as 8.91%.

Turning to `O=C(C1COc2ccccc2O1)N1CCN(S(=O)(=O)c2ccccc2)CC1` (stereo not drawn), the “hERG current change (%, negative = inhibition) at 10uM” value was -30.2%.

On to `C/C(=N\Nc1nc2ccccc2[nH]1)c1cccs1`, for which the “hERG current change (%, negative = inhibition) at 10uM” value is given as -19.2%.

Take `O=C(Nc1ccc(C(=O)O)cc1)/C(=C\C=C\c1ccccc1)NC(=O)c1cccc(Br)c1`: the “hERG current change (%, negative = inhibition) at 10uM” value is 3.03%.

Regarding `COc1ccccc1NC(=O)C(CC=C(Cl)Cl)C(C)=O` (stereo not drawn), the “hERG current change (%, negative = inhibition) at 10uM” value was 21.6%.

`CN(C)CCn1c2c(c(SCC(=O)Nc3nccs3)nc1=O)CCCC2`: the “hERG current change (%, negative = inhibition) at 10uM” value was -30%.

For the compound `CCCCn1c(=O)c(C(=O)Nc2nnc(C(C)C)s2)c(O)c2ccccc21`, the “hERG current change (%, negative = inhibition) at 10uM” value is reported as -2.58%.

Turning to `CCN(CC)S(=O)(=O)c1cccc(-c2nnc(C(=O)c3ccc(C(F)(F)F)cc3)o2)c1`, the “hERG current change (%, negative = inhibition) at 10uM” value worked out at 8.73%.

Turning to `O=[N+]([O-])c1ccc(Cl)c(S(=O)(=O)/N=C(/c2ccccc2)N2CCOCC2)c1`, the “hERG current change (%, negative = inhibition) at 10uM” value stood at 3.91%.

In the case of `O=C1NC(=O)C(=Cc2ccc(SC3CCCCC3)o2)C(=O)N1`, the “hERG current change (%, negative = inhibition) at 10uM” value was 18.7%.

As to `O=C(CCC1CCCN(C(=O)COc2ccccc2)C1)N1CCN(c2ccccn2)CC1` (stereo not drawn), the “hERG current change (%, negative = inhibition) at 10uM” value is on record as -26.6%.

Turning to `O=c1c(O)c(-c2ccc(O)cc2)oc2cc(O)cc(O)c12`, the “hERG current change (%, negative = inhibition) at 10uM” value was determined as 7.99%.

Take `COC/C=C/C1=CC2=CC(=O)C(C)(OC(=O)c3cnc4ccccc4n3)C(=O)C2=CN1C1CCCC1` (stereo not drawn): the “hERG current change (%, negative = inhibition) at 10uM” value is -10.8%.

With `Cc1cc(=O)oc2cc(NC(=O)c3cc([N+](=O)[O-])ccc3N3CCOCC3)ccc12`, the “hERG current change (%, negative = inhibition) at 10uM” value is reported as -36.9%.

Take `COc1ccc(C(OCC(O)CNCCc2ccccc2)c2ccc(OC)cc2)cc1.O=C(O)C(=O)O` (stereo not drawn): the “hERG current change (%, negative = inhibition) at 10uM” value is recorded as -63.7%.

`CCOc1cc(C2C(C(=O)c3ccc(C)o3)=C(O)C(=O)N2CCc2ccccc2)ccc1O` (stereo not drawn): the “hERG current change (%, negative = inhibition) at 10uM” value is 12.4%.

For `Cc1ccc(NC(=O)CSc2nnc(C)c(=O)[nH]2)cc1C`, the “hERG current change (%, negative = inhibition) at 10uM” value amounted to 12.2%.

As for `COc1cccc(/C=N/NC(=S)NCCc2ccccc2)c1`, the “hERG current change (%, negative = inhibition) at 10uM” value came out at 10.5%.

In the case of `Cc1ccccc1Cn1nc(C)c(NC(=O)c2sc3ccccc3c2Cl)c1C`, the “hERG current change (%, negative = inhibition) at 10uM” value is reported as -6.69%.

With `COC(=O)Cc1ccc(NC(=S)Nc2cccc(C)n2)cc1`, the “hERG current change (%, negative = inhibition) at 10uM” value was determined as 13.4%.

As to `O=C(NC(c1cccnc1)C(F)(F)F)c1cc(COc2ccc3c(c2)CCCC3)on1` (stereo not drawn), the “hERG current change (%, negative = inhibition) at 10uM” value is on record as -4.7%.

For the compound `Cc1ccc(-c2noc(CCCN3C(=O)c4ccccc4C3=O)n2)cc1`, the “hERG current change (%, negative = inhibition) at 10uM” value was 9.03%.

In the case of `O=C(Nc1ccc(OCC(F)(F)C(F)F)c(C(F)(F)F)c1)c1ccccc1`, the “hERG current change (%, negative = inhibition) at 10uM” value was 4.51%.

Consider `CC(=O)Nc1ccc(C(=O)COC(=O)c2nc3nc(C)cc(C)n3n2)cc1`, for which the “hERG current change (%, negative = inhibition) at 10uM” value is on record as -1.6%.

In the case of `COc1ccc(CCNC(=O)CCC(=O)N2CCOc3ccc(C)cc32)cc1OC`, the “hERG current change (%, negative = inhibition) at 10uM” value worked out at 3.41%.

As to `CCC1C(=O)N=C(SCC(=O)Nc2cccc3ccccc23)NC1=O` (stereo not drawn), the “hERG current change (%, negative = inhibition) at 10uM” value is on record as -7.84%.

Regarding `Cc1nc(Oc2ccc(S(=O)(=O)N3CCOCC3)cc2Cl)c2c3c(sc2n1)CCCC3`, the “hERG current change (%, negative = inhibition) at 10uM” value stood at 7.95%.

`O=C(/C=C/c1ccc(S(=O)(=O)NCc2ccco2)cc1)NCc1ccccc1Cl`: the “hERG current change (%, negative = inhibition) at 10uM” value is given as -19%.

Regarding `CCCCn1c(N)c(N(CC(C)C)C(=O)CSc2ccc([N+](=O)[O-])cc2)c(=O)[nH]c1=O`, the “hERG current change (%, negative = inhibition) at 10uM” value is given as -25%.

With `Cc1ccc(N2CC(C(=O)NCCC3=CCCCC3)CC2=O)cc1` (stereo not drawn), the “hERG current change (%, negative = inhibition) at 10uM” value was determined as 2.9%.

With `Cn1c(=O)[nH]c(=O)c2c1nc(N1CCCCC1)n2CC(O)CN1CCCCC1` (stereo not drawn), the “hERG current change (%, negative = inhibition) at 10uM” value is reported as -3.99%.

As for `CCOc1ccc2nc(C)cc(Nc3ccc(N4CCOCC4)cc3)c2c1.Cl`, the “hERG current change (%, negative = inhibition) at 10uM” value is reported as -73%.

`COc1ccc(CCNC(=O)Cc2cc(OCc3ccccc3)c(OC)cc2[N+](=O)[O-])cc1OC`: the “hERG current change (%, negative = inhibition) at 10uM” value is on record as -15.1%.

As for `COc1cccc(NS(=O)(=O)c2ccc3[nH]cc(C(=O)NCCC(C)C)c(=O)c3c2)c1`, the “hERG current change (%, negative = inhibition) at 10uM” value is 13.9%.

Consider `CC(C)CNC(=O)CSc1ccc(S(=O)(=O)N2CCN(C)CC2)cn1`, for which the “hERG current change (%, negative = inhibition) at 10uM” value is -0.986%.

On to `CCNc1nc(N)c(C(=C(C#N)C#N)c2ccccc2)s1`, for which the “hERG current change (%, negative = inhibition) at 10uM” value was determined as 6.61%.

In the case of `O=C(Nc1nnc(Cc2ccccc2)s1)c1cnccn1`, the “hERG current change (%, negative = inhibition) at 10uM” value is reported as 2.06%.

As to `COc1ccc(CC(=O)Nc2ccc(-c3nnc(-c4ccccc4)o3)cc2)cc1OC`, the “hERG current change (%, negative = inhibition) at 10uM” value is -4.15%.

For the compound `COc1ccc2[nH]c(O)c(N=NC(=N)N)c2c1`, the “hERG current change (%, negative = inhibition) at 10uM” value is 7.36%.

In the case of `C=CCN(CC=C)C(=O)COC(=O)c1ccc(Sc2ncn[nH]2)c([N+](=O)[O-])c1`, the “hERG current change (%, negative = inhibition) at 10uM” value is given as 1.5%.

Take `CC1CCN(c2c(NCc3ccc(C(=O)NCc4ccco4)cc3)c(=O)c2=O)CC1`: the “hERG current change (%, negative = inhibition) at 10uM” value is reported as 15.5%.

For the compound `Cc1cccc(N(CC(=O)NC2CCCCC2)C(=O)c2ccc(C)s2)c1`, the “hERG current change (%, negative = inhibition) at 10uM” value was -24.7%.

Regarding `Cc1nc(NCCO)c2nnn(Cc3ccccc3F)c2n1`, the “hERG current change (%, negative = inhibition) at 10uM” value is listed as 8.52%.

For the compound `COc1ccc(/C=C(\C#N)C(=O)c2cccn2C)cc1`, the “hERG current change (%, negative = inhibition) at 10uM” value came out at 16.7%.

`CC1(C)CC2CC(C)(CN2C(=O)c2cc(-c3ccccc3)on2)C1` (stereo not drawn): the “hERG current change (%, negative = inhibition) at 10uM” value is given as -30%.

In the case of `CC(CN1CCCCC1)OC(=O)c1ccc2c(c1)OCO2.Cl` (stereo not drawn), the “hERG current change (%, negative = inhibition) at 10uM” value was -25.3%.

Regarding `COc1cccc(Oc2nc3ncn(Cc4ccccc4)c3c(=O)n2C)c1`, the “hERG current change (%, negative = inhibition) at 10uM” value stood at 4.09%.
